{"source": "paper PMC6073470", "about": "(International Journal of Molecular Sciences, 2018)", "key": {"[1]": {"molecular_target": "the molecule itself", "assay": "SEC; as a1, but at low quantities of protein loaded on the column (low concentration), where a smaller species appears"}, "[2]": {"molecular_target": "the molecule itself", "assay": "SEC; Superdex 200 HR 10/30; 20 mM Tris/acetate pH 7.6, 150 mM NaCl, 0.1 mM EDTA, 0.1 mM PMSF, 15 mM beta-mercaptoethanol; 10-120 ug protein in 100 uL loaded; apparent mass from calibration, estimated number of subunits"}}}
{"protein": "R27A mutant of human HspB1 (natural protein, HspB1, human; […]; Arg27 of the RLFDQxFG motif replaced by Ala; Expressed from pET23b; also called R27A HspB1; source: E. coli BL21(DE3)pLysS, purified (ammonium sulfate fractionation, HiTrap Q HP, Superdex-200 SEC)) not shown", "values": [{"measurement": "stoichiometry N", "setting": "[1]", "value": "~4", "unit": "monomers"}, {"measurement": "stoichiometry N", "setting": "[2]", "value": "~22", "unit": "monomers"}]}
